From FireProtDB (doi:10.1021/bi00178a027)

Conditions: Escherichia coli (strain K12), Thermal, DSC, Sodium phosphate 50 mM, reversible: yes

Thioredoxin 1 wild type (sequence not shown)
Tm (pH 6): 74 °C
heat capacity change of unfolding (pH 6): 1.93 kcal/mol/K
unfolding enthalpy (calorimetric) (pH 6): 67.8 kcal/mol
Tm (pH 7): 73.3 °C
heat capacity change of unfolding (pH 7): 2.07 kcal/mol/K
unfolding enthalpy (calorimetric) (pH 7): 76.1 kcal/mol
